Reference: PubChem BioAssay (NCATS)
This list was built around the results that the source calls inconclusive (neither active nor inactive); the mix of calls is not that of the screen. For part of these data: No potency is given beside an inconclusive call; the fits are too rough. Active and inactive are the calls of the source. Calls come from the whole dose curve; as a rule, active = well fitted curve in the direction sought with a large enough effect; inconclusive = small, poorly fitted or top-dose-only effect, or another doubt; inactive = no such curve, though single readings can be large; an effect the other way counts as inactive or inconclusive. Non-standard residues stand in square brackets, D forms with d. Residues, ends and D or L forms follow the SMILES beside them. *: point of attachment. Sta = CC(C)C[C@H](N)[C@@H](O)CC(=O)O; Isovaleryl = CC(C)CC(=O)*

How the values were obtained:
[1] = BET inhibitor-based combinations targeting novel dependencies in MECOM-rearranged (r) AML: OCI-AML3 cell line (AID 2202232); details: CellTiter-Glo luminescence, 48 h; Potency: OCI-AML3 viability; viability (% of control): at 46 µM (top of the series); note: nearly all actives have a fitted effect of over 35% in size; note: potency is the fitted concentration of half-maximal effect
In short: (§1)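 Viability of cells (500 per well) is scored by luminescent CellTiter-Glo at 48 hr post-dosing. Eleven-point titrations are normalized to DMSO and empty controls and reduced to AUC values.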

[2] = BET inhibitor-based combinations targeting novel dependencies in MECOM-rearranged (r) AML: HNT-34 cell line (AID 2202234); details: HNT-34 AML viability, CellTiter-Glo luminescence, 48 h; series mostly up to 46 µM; note: potency is the fitted concentration of half-maximal effect; nearly all actives have a fitted effect of over 35% in size
In short: (§2)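 Using pin-tool transfer, drugs were added in 11 doses to cells (500/well), incubated 48 hr, and assessed with CellTiter-Glo. Z-AUC is a mean-centring transformation applied separately to each screened line.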

[3] = BET inhibitor-based combinations targeting novel dependencies in MECOM-rearranged (r) AML: UCSD-AML1 cell line (AID 2202235); details: UCSD-AML1 AML cells viability, CellTiter-Glo, 48 h; viability (% of control): at 46 µM (top of the series); note: nearly all actives have a fitted effect of over 40% in size; note: potency is the fitted concentration of half-maximal effect
In short: as §2

[4] = BET inhibitor-based combinations targeting novel dependencies in MECOM-rearranged (r) AML: AML-191 cell line (AID 2202236; note: nearly all actives have a fitted effect of over 35% in size; note: potency is the fitted concentration of half-maximal effect); details: AML-191 viability, CellTiter-Glo luminescence, 48 h; series mostly up to 46 µM
In short: as §1

[5] = BET inhibitor-based combinations targeting novel dependencies in MECOM-rearranged (r) AML: AML-194 cell line (AID 2202237; note: nearly all actives have a fitted effect of over 40% in size; note: potency is the fitted concentration of half-maximal effect); details: AML-194 (MECOM-r AML) viability, CellTiter-Glo, 48 h; series mostly up to 46 µM
In short: as §1

[6] = BET inhibitor-based combinations targeting novel dependencies in MECOM-rearranged (r) AML: MV-4-11 cell line (AID 2202233); details: MV-4-11 AML viability, CellTiter-Glo luminescence, 48 h; series mostly up to 46 µM; note: nearly all actives have a fitted effect of over 45% in size
In short: as §2
Tags give direction and shape of the fitted curve.

SMILES | Potency [1] | Potency [2] | Potency [3] | Potency [4] | Potency [5] | Potency [6]
Oc1ccc(OCc2ccccc2)cc1 | inconclusive [inhibitor, partial curve, poor fit] | inconclusive [inhibitor, full curve, poor fit] | inconclusive [inhibitor, partial curve] | inconclusive [inhibitor, partial curve, poor fit] | inconclusive [inhibitor, partial curve] | 
COc1ccc(C(=O)N2CCN(C(=O)/C=C/c3ccc(Br)cc3)CC2)cc1 | inconclusive [inhibitor, partial curve, poor fit] | inconclusive [inhibitor, partial curve, poor fit] | inactive | inactive |  | 
CC(C)CC(=O)N[C@H](C(=O)N[C@H](C(=O)N[C@@H](CC(C)C)[C@@H](O)CC(=O)N[C@@H](C)C(=O)N[C@@H](CC(C)C)[C@@H](O)CC(=O)O)C(C)C)C(C)C (Isovaleryl-VV[Sta]A[Sta]-OH) |  |  |  |  |  | inactive
Cc1ccc(S(=O)(=O)OCC(=O)Nc2ccc(C(=O)O)c(O)c2)cc1 | inactive |  |  |  | inactive | 
NC(=O)c1ncn([C@@H]2O[C@H](CO)[C@@H](O)[C@H]2O)n1 | inconclusive [inhibitor, partial curve, poor fit] |  |  | inconclusive [inhibitor, partial curve, poor fit] | inconclusive [inhibitor, single point] | 
